# PubChem BioAssay AID651820 (National Center for Advancing Translational Sciences (NCATS), 2012)
# Hit rate of the full screen: of about 340,000 compounds, about 12,000 (3.5%) were called active. Inconclusive results, whose numbers are uncertain, are shown with a selection of clear calls. Calls come from the whole dose curve; as a rule, active = well fitted inhibition curve with a large enough effect; inconclusive = small, poorly fitted or top-dose-only effect, or another doubt; inactive = no such curve, though single readings can be large or run the other way. Potencies of inconclusive entries are left out as doubtful fits.
# Experiment: qHTS Assay for Inhibitors of Hepatitis C Virus (HCV)
# Conditions: Huh7.5.1 HCVcc-Cre (HCVcc is cell-culture hepatitis C virus) infection, luciferase reporter, 44 h; activity change, negative = inhibition: at 41.8 µM (top of the series) unless noted
# In short: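 1,000 cells/well; 4 h culture; + compound; + HCVcc-Cre (~0.5 moi); 44 h; luciferase substrate, RT 15 min; read 15 sec.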
# % is set by controls: 0 for no effect and ±100 for the full control effect; potency is the fitted concentration of half-maximal effect; tags give direction and shape of the fitted curve.
SMILES,"activity change, negative = inhibition",Potency
COc1ccc(F)cc1CN1CCN(c2ncnc3scc(-c4ccccc4)c23)CC1,inconclusive: -47.4% [inhibitor],
Cc1cnc(C(=O)Nc2ccccc2C(=O)N2CCOCC2)cn1,inactive: 17.6%,
Cc1ccc(O)c(/C=N/NC(=O)c2[nH]ncc2Br)c1,,"inconclusive [inhibitor, single point]"
CN(CC(=O)NC1CCN(Cc2ccccc2)CC1)S(=O)(=O)c1ccc(Br)s1,,"inconclusive [inhibitor, full curve]"
CCn1nc(C)c(/C=N/NC(=S)Nc2ccc(Cl)cc2Cl)c1C,,"inconclusive [inhibitor, partial curve]"
CCn1c(=O)cc(C(=O)OC)sc1=Nc1ccc(F)c(F)c1,,active: 12.6 µM
CC(C)Oc1ccc(S(=O)(=O)N2CCOCC2)cc1NC(=O)C1CCC1,inactive: 11.8%,
COc1cc2[nH]c3c(=O)n4c(nc3c2cc1OC)SCCC4,,"inconclusive [inhibitor, single point]"
CC(C)CN(C(=O)c1ccc([N+](=O)[O-])s1)c1c(N)n(Cc2ccccc2)c(=O)[nH]c1=O,inactive: -10.6%,
CCN(CC)S(=O)(=O)c1ccc(NC(=O)c2ccccc2N(C)S(C)(=O)=O)cc1,inactive: 5.98%,
CCN(CC)CCCN(C(=O)c1ccccc1F)c1nc(-c2ccc(OC)cc2)cs1,,"inconclusive [inhibitor, single point]"
Cc1ccc(-n2c(=O)c3sccc3n(Cc3cc(=O)n4cc(Cl)ccc4n3)c2=O)cc1F,,"inconclusive [inhibitor, partial curve]"
CCc1ccc(OCC(=O)O/N=C(\N)c2ccncc2)c(Br)c1,,"inconclusive [inhibitor, single point]"
COc1ccc(C(=O)c2ccc3oc(-c4ccc(OC)cc4)c(-c4ccc(O)cc4)c3c2)cc1,,active: 8.91 µM
Cc1cc(C)c(NC(=O)c2cn3c4c(c(N5CCN(C)CC5)c(F)cc4c2=O)OCC3C)c(C)c1 (stereo not given),,"inconclusive [inhibitor, single point]"
Cc1ccc(N(C)S(=O)(=O)c2cccc(C(=O)Nc3ccc(N4CCOCC4)cc3)c2)cc1,,active: 6.31 µM
COc1ccc2c(c1)c(=O)c(Br)c(C)n2Cc1ccccc1,,"inconclusive [inhibitor, partial curve]"
COc1cc(OC)cc(C(=O)NNC(=O)C2CCCC2)c1,inactive: -2.35%,
C=CCNC(=O)CN1CCC(NC(=O)c2ccco2)CC1,inactive: 1.31%,
O=C(Nc1cccc(C(F)(F)F)c1)N1CCC(c2nc(-c3ccc(F)cc3)no2)CC1,,active: 11.2 µM
